Results reported in PMC9911399, “Two distinct binding modes provide the RNA-binding protein RbFox with extraordinary sequence specificity”.
Where a chain is given by its changes, count along the chain named. The list shows a part of the results.

B1: CCUAGUU (DNA:RNA)
RNA: GGGAGACCGGAAUUCAGAUUGUCCCCUAGUUUUAAAUCCCGUCGUAGCCACCA
DNA 1: CAATCTGAATTCCGGTCTCCC
DNA 2: TGGTGGCTACGACGGGATT
B2: AUAUGCU (DNA:RNA)
RNA: B1 RNA with C25A, C26U, U27A, A28U, U30C
DNA 1: CAATCTGAATTCCGGTCTCCC
DNA 2: TGGTGGCTACGACGGGATT
B3: AAAUACG (DNA:RNA)
RNA: GGGAGACCGGAAUUCAGAUUGUCCAAAUACGUUAAAUCCCGUCGUAGCCACCA
DNA 1: CAATCTGAATTCCGGTCTCCC
DNA 2: TGGTGGCTACGACGGGATT
B4: UUAACUU (DNA:RNA)
RNA: B1 RNA with C25U, C26U, U27A, G29C
DNA 1: CAATCTGAATTCCGGTCTCCC
DNA 2: TGGTGGCTACGACGGGATT
B5: AGCGUCG (DNA:RNA)
RNA: B3 RNA with A26G, A27C, U28G, A29U
DNA 1: CAATCTGAATTCCGGTCTCCC
DNA 2: TGGTGGCTACGACGGGATT
B6: AAAUUGG (DNA:RNA)
RNA: B3 RNA with A29U, C30G
DNA 1: CAATCTGAATTCCGGTCTCCC
DNA 2: TGGTGGCTACGACGGGATT
B7: CUUUCUU (DNA:RNA)
RNA: B1 RNA with C26U, A28U, G29C
DNA 1: CAATCTGAATTCCGGTCTCCC
DNA 2: TGGTGGCTACGACGGGATT
B8: UAUCAAU (DNA:RNA)
RNA: B3 RNA with A25U, A27U, U28C, C30A, G31U
DNA 1: CAATCTGAATTCCGGTCTCCC
DNA 2: TGGTGGCTACGACGGGATT
B9: GUGAGUG (DNA:RNA)
RNA: B1 RNA with C25G, C26U, U27G, U31G
DNA 1: CAATCTGAATTCCGGTCTCCC
DNA 2: TGGTGGCTACGACGGGATT
B10: CCGGUCC (DNA:RNA)
RNA: B1 RNA with U27G, A28G, G29U, U30C, U31C
DNA 1: CAATCTGAATTCCGGTCTCCC
DNA 2: TGGTGGCTACGACGGGATT
B11: UUUUAGC (DNA:RNA)
RNA: B3 RNA with A25U, A26U, A27U, C30G, G31C
DNA 1: CAATCTGAATTCCGGTCTCCC
DNA 2: TGGTGGCTACGACGGGATT
B12: CCUCUCU (DNA:RNA)
RNA: B1 RNA with A28C, G29U, U30C
DNA 1: CAATCTGAATTCCGGTCTCCC
DNA 2: TGGTGGCTACGACGGGATT
B13: CUUGAUA (DNA:RNA)
RNA: B1 RNA with C26U, A28G, G29A, U31A
DNA 1: CAATCTGAATTCCGGTCTCCC
DNA 2: TGGTGGCTACGACGGGATT
B14: UCUCCCA (DNA:RNA)
RNA: B1 RNA with C25U, A28C, G29C, U30C, U31A
DNA 1: CAATCTGAATTCCGGTCTCCC
DNA 2: TGGTGGCTACGACGGGATT
B15: GUUAGCU (DNA:RNA)
RNA: B1 RNA with C25G, C26U, U30C
DNA 1: CAATCTGAATTCCGGTCTCCC
DNA 2: TGGTGGCTACGACGGGATT
B16: CGCGCGC (DNA:RNA)
RNA: B1 RNA with C26G, U27C, A28G, G29C, U30G, U31C
DNA 1: CAATCTGAATTCCGGTCTCCC
DNA 2: TGGTGGCTACGACGGGATT
B17: UCGCGAU (DNA:RNA)
RNA: B1 RNA with C25U, U27G, A28C, U30A
DNA 1: CAATCTGAATTCCGGTCTCCC
DNA 2: TGGTGGCTACGACGGGATT
B18: GGGUUAG (DNA:RNA)
RNA: B3 RNA with A25G, A26G, A27G, A29U, C30A
DNA 1: CAATCTGAATTCCGGTCTCCC
DNA 2: TGGTGGCTACGACGGGATT
B19: AUCAAAC (DNA:RNA)
RNA: B3 RNA with A26U, A27C, U28A, C30A, G31C
DNA 1: CAATCTGAATTCCGGTCTCCC
DNA 2: TGGTGGCTACGACGGGATT
B20: GGAUGGU (DNA:RNA)
RNA: B3 RNA with A25G, A26G, A29G, C30G, G31U
DNA 1: CAATCTGAATTCCGGTCTCCC
DNA 2: TGGTGGCTACGACGGGATT
B21: GAUUAUC (DNA:RNA)
RNA: B3 RNA with A25G, A27U, C30U, G31C
DNA 1: CAATCTGAATTCCGGTCTCCC
DNA 2: TGGTGGCTACGACGGGATT
B22: UUUCCAU (DNA:RNA)
RNA: B1 RNA with C25U, C26U, A28C, G29C, U30A
DNA 1: CAATCTGAATTCCGGTCTCCC
DNA 2: TGGTGGCTACGACGGGATT
B23: UAAGCAG (DNA:RNA)
RNA: B3 RNA with A25U, U28G, A29C, C30A
DNA 1: CAATCTGAATTCCGGTCTCCC
DNA 2: TGGTGGCTACGACGGGATT
B24: CCUUCGC (DNA:RNA)
RNA: B1 RNA with A28U, G29C, U30G, U31C
DNA 1: CAATCTGAATTCCGGTCTCCC
DNA 2: TGGTGGCTACGACGGGATT
B25: UCGAUUA (DNA:RNA)
RNA: B1 RNA with C25U, U27G, G29U, U31A
DNA 1: CAATCTGAATTCCGGTCTCCC
DNA 2: TGGTGGCTACGACGGGATT
B26: CGAACAG (DNA:RNA)
RNA: B3 RNA with A25C, A26G, U28A, A29C, C30A
DNA 1: CAATCTGAATTCCGGTCTCCC
DNA 2: TGGTGGCTACGACGGGATT
B27: GGAUUCU (DNA:RNA)
RNA: B3 RNA with A25G, A26G, A29U, G31U
DNA 1: CAATCTGAATTCCGGTCTCCC
DNA 2: TGGTGGCTACGACGGGATT
B28: CUCGCGU (DNA:RNA)
RNA: B1 RNA with C26U, U27C, A28G, G29C, U30G
DNA 1: CAATCTGAATTCCGGTCTCCC
DNA 2: TGGTGGCTACGACGGGATT
B29: UUAAGGC (DNA:RNA)
RNA: B1 RNA with C25U, C26U, U27A, U30G, U31C
DNA 1: CAATCTGAATTCCGGTCTCCC
DNA 2: TGGTGGCTACGACGGGATT
B30: CGUAAUU (DNA:RNA)
RNA: B1 RNA with C26G, G29A
DNA 1: CAATCTGAATTCCGGTCTCCC
DNA 2: TGGTGGCTACGACGGGATT
B31: GCCAGUA (DNA:RNA)
RNA: B1 RNA with C25G, U27C, U31A
DNA 1: CAATCTGAATTCCGGTCTCCC
DNA 2: TGGTGGCTACGACGGGATT

Molecular target: T1, RBFOX1 RRM RbFoxmut (Fox-RRM*) (Homo sapiens, UniProt Q9NWB1 109-208, R118D;E147R;N151S;E152T)
T1 sequence: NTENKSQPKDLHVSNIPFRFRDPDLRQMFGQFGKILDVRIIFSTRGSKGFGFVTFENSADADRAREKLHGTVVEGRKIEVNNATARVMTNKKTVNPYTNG
Assay: EMSA; HiTS-Eq, 1 nM pool, 10 min; buffer printed only for the single-RNA assays: 10 mM Tris pH 7.5, 150 mM NaCl, 3.4 mM EDTA, 0.001% NP-40, 30 C
Conditions: tags: His6 N-terminal (pET28a); label: 5' 32P
How it was run: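 A pool of RNA with 7 randomized nucleotides, 5′-radiolabelled and with DNA-annealed flanks, was equilibrated at 1 nM for 10 min in 50 µL with purified RbFox RRM, wild type or mutant, across increasing protein concentrations. Free RNA was separated by 8% native PAGE, excised, reverse-transcribed, barcoded by PCR and sequenced. Relative association constants were obtained from read-count changes of each RNA species versus the control reaction and normalised to the cognate motif.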

Row | Binder | binding signal
1 | B1 | 0.0853 KA relative to UGCAUGU
2 | B2 | 0.129 KA relative to UGCAUGU
3 | B3 | 0.115 KA relative to UGCAUGU
4 | B4 | 0.0767 KA relative to UGCAUGU
5 | B5 | 0.1 KA relative to UGCAUGU
6 | B6 | 0.0727 KA relative to UGCAUGU
7 | B7 | 0.088 KA relative to UGCAUGU
8 | B8 | 0.0491 KA relative to UGCAUGU
9 | B9 | 0.297 KA relative to UGCAUGU
10 | B10 | 0.0485 KA relative to UGCAUGU
11 | B11 | 0.109 KA relative to UGCAUGU
12 | B12 | 0.0597 KA relative to UGCAUGU
13 | B13 | 0.134 KA relative to UGCAUGU
14 | B14 | 0.0816 KA relative to UGCAUGU
15 | B15 | 0.104 KA relative to UGCAUGU
16 | B16 | 0.117 KA relative to UGCAUGU

Row | Binder | binding signal
17 | B17 | 0.0691 KA relative to UGCAUGU
18 | B18 | 0.161 KA relative to UGCAUGU
19 | B19 | 0.0814 KA relative to UGCAUGU
20 | B20 | 0.201 KA relative to UGCAUGU
21 | B21 | 0.0782 KA relative to UGCAUGU
22 | B22 | 0.0757 KA relative to UGCAUGU
23 | B23 | 0.0802 KA relative to UGCAUGU
24 | B24 | 0.0843 KA relative to UGCAUGU
25 | B25 | 0.114 KA relative to UGCAUGU
26 | B26 | 0.0626 KA relative to UGCAUGU
27 | B27 | 0.0942 KA relative to UGCAUGU
28 | B28 | 0.136 KA relative to UGCAUGU
29 | B29 | 0.0968 KA relative to UGCAUGU
30 | B30 | 0.0779 KA relative to UGCAUGU
31 | B31 | 0.104 KA relative to UGCAUGU
